The list shows a part of the results.
test system: PfSIP2 AP2 domain 1 (GST-tagged); assay: gcPBM binding intensity (ln(normalized median fluorescence intensity)); higher = stronger DNA binding
Procedure, shortened: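 Alexa488 anti-GST antibody, scanned at 488 nm, detected GST-tagged P. falciparum DNA-binding domains that had been expressed in E. coli and incubated for 1 h on an Agilent 4 × 180k array. The array carried primer-extended double-stranded 36-bp intergenic genomic probes and negative controls. Binding intensity is the highest Masliner-normalised natural-log median intensity across replicate spots of either orientation of each probe.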

| Sequence | gcPBM binding intensity (ln) |
| --- | --- |
| TTTAAAACCTTACATACACACAAATATATATATATA [CACACA_site677] | 9.16 |
| CAAACAATTAAACAAACACACATATACAAGTATTTA [CACACA_site5177] | 6.69 |
| TTTAAGTTTTTACTTTGTACGTATTATAATAAAATC [XGTACX_site5683] | 7.33 |
| TATATTTACTTATGAAGTACATATATATATATATAT [XGTACX_site5069] | 9.53 |
| TGTTCTTTTTATACTACACACTGATAAAAAAACAAA [CACACA_site3001] | 7.34 |
| TTCATACATAGAAAATGTACATATATATATATATAT [XGTACX_site1895] | 9.47 |
| ATATATATGCATAATACACACATCATATAATTAACC [CACACA_site1643] | 7.24 |
| TACAAAATATTTTACACACACATATAAATACAGATA [CACACA_site5447] | 7.08 |
| AAGATATGTACTAATACACACACATATATATATATA [CACACA_site8249] | 9.19 |
| AAAAAAAAAAACAATACATGCATAATATTAATAAAA [TGCATGCA_site913] | 6.96 |
| AAAGAAAAAAAATAATGTACTTATGTATTTCAGAAA [XGTACX_site3570] | 6.78 |
| ATTTTTTTTTTTAATACACACAATTTTGATGAAGCA [CACACA_site3157] | 7.01 |
| TTTCATAAGAGAAAGACACACAAATATATATTTATT [CACACA_site827] | 6.81 |
| TATAATATTTGGTGCACACAAATTAACAACTGTTTA [CACACA_site3742] | 11.7 |
| ACATTACCATATAAAACACACAAACATACATACATA [CACACA_site7709] | 7.13 |
| TATCCATGCATTTACACACACACAAAAAAAAATTCT [CACACA_site4100] | 7.57 |
| TTTTAAATAATTCGTAATTATAATTATGGAAAAAAG [CACACA_negctrl_site152] | 6.99 |
| AAATAAATTAAAATAAATTAAATTAAATTAGCATTA [GTGCAC_negctrl_site531] | 6.61 |
| TGTATGTTATGTATATGTACATATCTTTGTATTTAT [XGTACX_site6920] | 7.06 |
| TAATATTTATAATAGTGTACACAATTATAAACTGAA [XGTACX_site8426] | 7.09 |
| TTTATTTTTTACCAAGTGCAATATATTATAATAATA | 7.77 |
| ACCTTATTTATTATTGCATGTGACCATCAGATGGTA [TGCATGCA_site288] | 7.6 |
| TATTTATAAGTTTACGCATGCATATAATTATTAATA [TGCATGCA_site311] | 6.79 |

| Sequence | gcPBM binding intensity (ln) |
| --- | --- |
| TTTTTTTTTTTTTTTGTGCACAATTATTTCAATTTT [GTGCAC_site9884] | 8.88 |
| ATATTTGCATGTGGTAGTACATAACATTCTTTTACA [XGTACX_site8194] | 7.37 |
| CTTCAATTAAAATTCACACATATAAATTAAAATATT [CACACA_site6129] | 6.85 |
| ACATATTATATATGTGTGCACATATATATATATTTA [GTGCAC_site9591] | 8.7 |
| ATATATAATTAATTTTGTACACATAAAAAAAAAAAT [XGTACX_site6647] | 7.25 |
| AGAGAGAAAGCTATAACATGCAACAATTTTTTGAAA [TGCATGCA_site514] | 6.57 |
| TTTATATATATAATATGTACACATAATAATAATACA [XGTACX_site4862] | 7.07 |
| AAATGACATTTCAAAAGTACATATTTAATTAATTAA [XGTACX_site2919] | 7.01 |
| TTTATTTAAAAAGTTTGTACATATATATTATTTTGA [XGTACX_site6040] | 6.89 |
| AAAAAATATTAGACTTATAAAGCATAAAGGATATTA [GTGCAC_negctrl_site588] | 6.67 |
| AATTTATTATTTTATTGTACGTATTTTTTTTTTTAT [XGTACX_site2298] | 7.19 |
| CATATATAAATATATACACACATACATACATACATA [CACACA_site5988] | 7.29 |
| ATATTATAGTTATGAACATGCAAACATTACGAAATA [TGCATGCA_site54] | 7.06 |
| ATAAAAATAAAAAGTGTGCACACAAAAATATATATA [GTGCAC_site9931] | 8.78 |
| AAAAAGAACAGAAACACACAAATAAAATAAAATTGT [CACACA_site6921] | 7.14 |
| AAATGTTAATAAAGGTGTACACAAAATAAAAAAAAT [XGTACX_site463] | 7.41 |
| TTAATTGACATAAAAAGTACTCATATAGATATGCAC [XGTACX_site6391] | 8.9 |
| TAATTTTATTTTATATGTACGCAATACAAATATATA [XGTACX_site8461] | 7.2 |
| CACCCCCACAGACACACACACACACCCATATATATA [CACACA_site364] | 7.86 |
| AAGATTCATTGGTTCTGTACAAAATAAACACTATAA [XGTACX_site834] | 7.09 |
| TTACCAAAAAAATGTAGTACAATATAATATTATTTA [XGTACX_site5750] | 7.44 |
| AATATATATATTTAAGTGCATAATATTGTAATATTA | 7.88 |
| ATATATTATGAAGACTGTACATTTACATGAAAAAAA [XGTACX_site7203] | 6.93 |

| Sequence | gcPBM binding intensity (ln) |
| --- | --- |
| TTCACCAGTTGGTAAACATGCAATTTTCCATACAAG [TGCATGCA_site267] | 6.75 |
| ATATAAATACATAAATGTACTTACCATTTAAATATG [XGTACX_site5254] | 7.12 |
| AAAAAAAACGGACACACACACATACCCATACATACA [CACACA_site5574] | 7.22 |
| ATTCTTTTAAAATAGGTGCTAAAAATAATATGTTAC | 8.29 |
| AAAGAAAGAAGAAATTGTACATAATAAATAAGTAAA [XGTACX_site3311] | 6.68 |
| ATATAAACAATATTTTGTACATAATTTTATGAGCAT [XGTACX_site6933] | 6.96 |
| GCATATGTTTATTGCACACACCAAAAAGAAAACATA [CACACA_site4384] | 7.37 |
| ATTATTTGTTTAATGAGTACGAAGACAAATTTTACC [XGTACX_site5223] | 7.4 |
| AAAGGAAAAAAAAGCACACACAATATTACTTGAAAT [CACACA_site2588] | 6.64 |
| TATATACACAGACACACACACACATACACGCACATA [CACACA_site6909] | 7.2 |
| GTACTATACAAAGATGATAATCAATATATATATATA [XGTACX_negctrl_site264] | 9.51 |
| TACATTTATATATATACACACACACTAATAAAAAAA [CACACA_site8845] | 7.23 |
| TAAATACAGATATATACACACATATATATATTTTAT [CACACA_site5970] | 6.99 |
| ATATGTATATATAAGGTGCAGAAAGGTGGGCAAAAG | 10 |
| TCATATATTTTAATATGTACACATTTTTTTGGTATA [XGTACX_site8695] | 6.81 |
| TACAGACTAAAATACACACACACACGCACATATATA [CACACA_site7875] | 7.19 |
| TTTTTCTTTATTAGCACACATAATATTATATATGTG [CACACA_site2629] | 7.11 |
| CTTTTGTCATTCTTTTGTACACAGTTTGAAATATGT [XGTACX_site1457] | 7.47 |
| AAATAGAGAAATACAAGTACATATCAAACCAATATA [XGTACX_site1192] | 6.76 |
| ATAATAAATAAATAATGTACATATGAAAGAATAAAT [XGTACX_site8355] | 7.34 |
| ATAAAAAAGAAACAAACACACATACATACAAACAAA [CACACA_site4256] | 7.04 |
| TATATATATATATATACACACTATATAATTCAAACA [CACACA_site4712] | 9.55 |
| ATGAATAAATTAAAAATGCACACTTTGATGGGTACA [CACACA_site2157] | 7.46 |

| Sequence | gcPBM binding intensity (ln) |
| --- | --- |
| AAATTGGGGCTTGTTACACACTTAGTGGGAGTTCTA [CACACA_site4485] | 6.9 |
| AAACTTGTAAGAAACACACACACACCCATATATATA [CACACA_site797] | 7.52 |
| TTACGATTATACAAAAGTACATGTATTACACAATAT [XGTACX_site5138] | 7.1 |
| TATACCAGTTTTAAAAGTACTTGTGCATAAAAAATA [XGTACX_site4794] | 7.78 |
| TAATAATAAAAATAAACACACATATATATGTATATA [CACACA_site2853] | 7.03 |
| CACTATATAAGAACCTGTACTCAATTTTGCAATATA [XGTACX_site7238] | 6.96 |
| ATATTTATTTATTTATGTACGCACACAGTTGATATT [XGTACX_site5808] | 7.53 |
| AAATTATATTCAAGTGCATGTAACTTATTATTATAT [TGCATGCA_site526] | 7.62 |
| TATATTTTCCTGCAAACACACATATAAATGTGTAGA [CACACA_site533] | 7.1 |
| GTAAAAATAAAAACTGGTACACAAGTTGTTATAAAA [XGTACX_site502] | 7.02 |
| AACATGCTCAACTTTTTTTTTTTTTTTTTTTTTTTT [CACACA_negctrl_site1617] | 8.59 |
| AAAATAAAATAAAAGTGTACGTTTTAAGAACATTGA [XGTACX_site2382] | 6.81 |
| CTTTTTTGTTAAAGTGTGCGCAATAGTTATAGACTT [GTGCAC_site9670] | 7.69 |
| TATAATCAATATGTAACACACAAAAGTTATATACTT [CACACA_site7368] | 6.85 |
| AATCTTAAAAATATATGTACTAAAAAAAAAAAAAAT [XGTACX_site6195] | 7.1 |
| TATAATAATTATACATGTACACATTATTTGGATAAA [XGTACX_site5552] | 6.97 |
| TTTTTATATTTAATGTGTCCTCACTTAAAAGGATGA [XGTACX_site2744] | 6.99 |
| ATTCTCCAAGTTTGATGTACACATATGACGACGGCG [XGTACX_site4912] | 7.39 |
| AATATATTTTTTGGTTGTACAGAGATCTTTGTAGAA [XGTACX_site1707] | 7.1 |
| AAAAATTATAGAAAAGTGCAATACATGTTACACCAT | 7.64 |
| TACAATAAGGATAAGTGTACATATGTGCATACATAT [XGTACX_site7188] | 7.11 |

Reference: the supplement of paper PMC11417369
